Laboratory results: paper PMC4336329 (PLoS ONE, 2015)
Hit rate of the full screen: of about 310,000 compounds, about 14,000 (4.5%) showed an effect of 50% or more. The effect is printed as a negative number. This is one part of the list.

target: human ether-à-go-go-related gene (hERG) potassium channel (human, UniProt Q12809); assay: primary screen, population patch clamp on CHO cells stably expressing hERG
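Note: peak tail current of the secondary pulse compared with the same well before compound.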

human ether-à-go-go-related gene (hERG) potassium channel, sequence (Q12809 whole entry, looked up): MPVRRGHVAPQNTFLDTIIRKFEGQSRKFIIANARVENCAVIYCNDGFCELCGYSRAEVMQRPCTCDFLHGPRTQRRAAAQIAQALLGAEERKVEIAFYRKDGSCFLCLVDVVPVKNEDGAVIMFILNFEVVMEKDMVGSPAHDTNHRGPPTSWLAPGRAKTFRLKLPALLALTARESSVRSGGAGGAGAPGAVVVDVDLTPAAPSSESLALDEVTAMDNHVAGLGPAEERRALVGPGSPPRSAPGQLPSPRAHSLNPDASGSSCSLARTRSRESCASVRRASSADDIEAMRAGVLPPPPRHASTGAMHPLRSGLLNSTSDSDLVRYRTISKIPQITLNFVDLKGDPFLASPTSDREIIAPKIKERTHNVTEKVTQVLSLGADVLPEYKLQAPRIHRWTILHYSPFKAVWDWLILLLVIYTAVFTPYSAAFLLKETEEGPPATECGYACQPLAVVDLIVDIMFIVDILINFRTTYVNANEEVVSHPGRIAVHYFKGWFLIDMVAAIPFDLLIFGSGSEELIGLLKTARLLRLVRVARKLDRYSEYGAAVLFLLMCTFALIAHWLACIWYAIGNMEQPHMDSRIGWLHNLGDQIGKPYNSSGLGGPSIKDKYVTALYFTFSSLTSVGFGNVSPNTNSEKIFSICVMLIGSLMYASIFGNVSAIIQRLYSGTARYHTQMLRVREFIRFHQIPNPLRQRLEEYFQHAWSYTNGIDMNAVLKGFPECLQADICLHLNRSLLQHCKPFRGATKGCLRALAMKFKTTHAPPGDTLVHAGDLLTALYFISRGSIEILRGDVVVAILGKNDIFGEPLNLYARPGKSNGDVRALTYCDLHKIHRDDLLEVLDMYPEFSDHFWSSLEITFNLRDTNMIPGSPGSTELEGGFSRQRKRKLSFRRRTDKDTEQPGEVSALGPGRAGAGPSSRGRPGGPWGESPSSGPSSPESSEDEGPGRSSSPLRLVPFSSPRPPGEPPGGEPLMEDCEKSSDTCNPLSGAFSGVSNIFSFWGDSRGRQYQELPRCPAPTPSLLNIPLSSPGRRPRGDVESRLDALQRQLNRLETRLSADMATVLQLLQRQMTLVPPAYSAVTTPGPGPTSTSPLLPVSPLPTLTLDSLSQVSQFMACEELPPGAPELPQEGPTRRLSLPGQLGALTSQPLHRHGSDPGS

SMILES	hERG current change (%, negative = inhibition) at 10uM [%]
O=C(CCCc1ccccc1)NCc1cccnc1	19.2
Cc1cc(C)c(NC(=O)C(C)Sc2nc3ccc(N4C(=O)c5ccccc5C4=O)cc3s2)c(C)c1 (centres unmarked)	-1.1
COc1ccc(C(CNC(=O)CNC(=O)c2ccccc2)N2CCCC2)cc1 (centres unmarked)	-13.8
CC1C/C(=C/c2ccccn2)C(=O)/C(=C/c2ccccn2)C1 (centres unmarked)	-9.29
CN1c2ccsc2/C(=N/Nc2ccccc2)CS1(=O)=O	6.46
C=CCC(CC)C(=O)NC(=O)N1CCCc2ccccc21 (centres unmarked)	15.8
O=C(/C=C/c1ccccc1)Nc1cccc(C(=O)O)c1	47.8
O=C(Cn1cc2c(n1)CCCCC2)Nc1c(F)cc(F)cc1Br	5.2
CCN(CC)C(=O)c1nc[nH]c1C(=O)N1CCN(C(=O)OC(C)(C)C)CC1	16.8
CCN(CC)C(=O)c1ccc(S(=O)(=O)Cc2ccc(C)cc2)c([N+](=O)[O-])c1	-17.6
Cc1ccc(S(=O)(=O)N2CC3(C)CN(S(=O)(=O)c4ccc(C)cc4)CC(C)(C2)C3O)cc1 (centres unmarked)	2.88
CC(=O)Nc1cccc(NC(=O)CSc2nnc3ccc(-c4cccnc4)nn23)c1	13.4
Cc1ccc(NS(=O)(=O)c2cccc(C(=O)Nc3c(C)n(C)n(-c4ccccc4)c3=O)c2)cc1	-6
CC(C)c1nc(N2CCN(C(=O)c3ccco3)CC2)c(C#N)c2c1COC(C)(C)C2	-71.5
COc1ccc(OC)c(C2C(C(C)=O)=C(C)Nc3ncnn32)c1 (centres unmarked)	11.2
CCCOc1ccc(CN(C)c2ncnc(N)n2)cc1	0.00248
N/C(=N\OC(=O)CCC1CCCC1)c1ccncc1	-17.1
CCC(=O)N1CCc2cc(S(=O)(=O)NCCC(=O)N3CCN(c4cccc(OC)c4)CC3)ccc21	0.127
CC1(C)C(=O)NCCN1C(=O)CC1C(=O)NCCN1CC(c1ccccc1)c1ccccc1 (centres unmarked)	12
CCCC12CN3CCN(CC(C3)/C1=N\NC(=O)c1ccc(F)cc1)C2	-1.38
Cc1ccc(-c2nn(-c3ccccc3)cc2/C=N/NC(=O)c2ccc3c(c2)OCO3)cc1	17.2
COc1ccc(OC)c(-n2cnc3cc(C(=O)NCCCN4CCOCC4)ccc32)c1	-2.93

SMILES	hERG current change (%, negative = inhibition) at 10uM [%]
Cl.OCCN1CCN(CC(O)COc2ccc(Cl)cc2)CC1 (centres unmarked)	-20.6
COc1ccccc1NC(=O)/C(=N/OCc1ccc(C#N)cc1)C(C)=O	-18.2
Cn1c(N)c(C(=O)COC(=O)CSc2cccc3cccc(Cl)c23)c(=O)n(C)c1=O	6.01
Cc1csc(NC(=O)CN2C(=O)C3CC=CCC3C2=O)n1 (centres unmarked)	-0.744
N#C/C(C(N)=O)=c1/ccc2c(c1)N1C3=C(CCCC3)CC3CCCCC31N=2 (centres unmarked)	-8.53
Cc1cc(C)c(OCC(=O)Nc2nc(-c3ccccn3)cs2)c(C)c1	-2.19
CC(C)(C)n1ncc2c(=O)n(CC(=O)c3ccccc3)cnc21	-10.4
COc1ccc(C(=O)Nc2ccc3oc(-c4cccc(F)c4)nc3c2)cc1OC	-1.26
CC(C)N1CC(C(=O)Nc2ccc(Br)c(Cl)c2)CC1=O (centres unmarked)	-2.34
COC(=O)c1cccc(NC(=O)CSc2nnc(C)n2C)c1	26
Cc1ccc(NC(=O)N2CCN(c3ncccc3C(F)(F)F)CC2)cc1	-15.7
CC(C)(C)c1ccc(CN2C(=O)CSC2=O)cc1	11.8
CC1=CC(C)(C)n2c(O)c(N=NC(N)=S)c3cc(C)cc1c32	14.2
CCOC(=O)C1(Cc2ccc(OC)cc2)CCN(C(=O)c2ccc3[nH]ccc3c2)CC1	-36
CCC(=O)N1CCc2cc(S(=O)(=O)CCC(=O)Nc3cccc(C)n3)ccc21	-0.596
Cc1cccc(NC(=O)C2C3CCC4C(CCC32)C4(Cl)Cl)c1 (centres unmarked)	2.1
COc1ccc(-c2nn(CCC#N)cc2C(=O)NCc2ccccc2)cc1OC	-42.3
O=C(Nc1cccc2c1CCCC2)c1cccc(F)c1	12.5
COc1ccc(NC(=O)Cn2c(=O)oc3cc(S(=O)(=O)N4CCCC4)ccc32)c(OC)c1	7.38
Cc1ccc2nc(-c3ccccc3)c(CN3CCOCC3)n2c1	-12
O=C(CCN1C(=O)COc2ccccc21)NCCCN1CCc2ccccc2C1	-15.4
O=C(COC(=O)C1CCN(c2ccc(C(F)(F)F)cn2)CC1)c1ccc(F)cc1	-0.831

SMILES	hERG current change (%, negative = inhibition) at 10uM [%]
O=S1(=O)c2cccc3cccc(c23)N1CCBr	-20
COc1ccc(C(C(=O)NC2CCCCC2)N(C(=O)CCCC(=O)Nc2ccccn2)c2ccc3c(c2)OCCO3)cc1 (centres unmarked)	-15.5
COc1ccc(Cl)cc1C(=O)NNC(=O)c1ccncc1	8.75
O=C(/C=C/c1ccc(OC(F)F)cc1)OCC(=O)N1CCN(C(=O)c2ccco2)CC1	-71
COC(=O)c1sccc1NC(=O)Nc1ccc(C)c(C)c1	2.3
CCOc1ccc(CCNC(=O)COC(=O)c2nc3nc(C)cc(C)n3n2)cc1OCC	-15.6
CC1CCN(c2ccc3c(c2)S(=O)(=O)c2cccc(C(=O)NC4CCCCC4)c2C3=O)CC1	0.473
COC(=O)C(Cc1cncn1COCc1ccccc1)NC(=O)OC(C)(C)C (centres unmarked)	10.3
Cc1nn(-c2ccccc2)c2c1C1(C(=O)N(C)c3ccccc31)C(C#N)=C(N)O2 (centres unmarked)	11.6
Cc1ccc(N(C(=O)CNC(=O)c2ccco2)C(C(=O)NC2CCCCC2)c2cccnc2)cc1 (centres unmarked)	-12.2
C=CCC(C)(NCc1ccccc1)c1ccccc1.Cl (centres unmarked)	-36.4
CCC(=O)N(c1nnc(SCC(=O)Nc2ccccc2Cl)s1)C1CC1	-4.24
CCOC(=O)N1CCN(c2c(N3CCc4ccccc4C3)c(=O)c2=O)CC1	-34.8
CC(Sc1nc2c([nH]c3ccccc32)c(=O)n1C)c1ccccc1 (centres unmarked)	17.5
CC(C)(C)c1ccc(NC(=O)C(=O)C2C(=O)Nc3ccccc32)cc1 (centres unmarked)	-5.17
O=C1C=C(Nc2cccc(Cl)c2)CC(c2ccco2)C1 (centres unmarked)	-4.15
CCn1c(C)cc(/C=C2\NC(=O)N(CC(=O)Nc3ccc(F)cc3)C2=O)c1C	13.3
CN(C)C1=NCCN1CC1CCCCC1	9.89
CC(C(=O)Nc1ccccc1Oc1ccccc1)c1ccccc1 (centres unmarked)	-19.4
CCOC(=O)CSc1nnc(CSc2nc(N)c3c(C)c(C)sc3n2)n1-c1ccccc1	-7.72
O=C(C1CCN(S(=O)(=O)c2ccccc2)CC1)N1CCN(Cc2ccccc2)CC1	12.9
CCCCCCNC(=O)CSc1nccn1Cc1ccccc1	-20.2

SMILES	hERG current change (%, negative = inhibition) at 10uM [%]
COc1ccc(CCN(Cc2nc3ccccc3c(=O)[nH]2)C(=O)c2ccco2)cc1	-7.06
COc1ccc(C(=O)N2CCN(c3cccc(Cl)c3)CC2)cc1	-36
CCNC(=S)N/N=C/c1ccccc1[N+](=O)[O-]	18.6
CCCCC(=O)NNC(=S)NCc1ccccc1	15.5
CCOC(=O)c1c(C)[nH]c(C)c1S(=O)(=O)NCc1ccccc1C	-5.92
Cc1cc(Cl)c(S(=O)(=O)N2CCCC2)cc1OCC(N)=O	5.11
CCCc1cc(N2CCCC(C(=O)NCc3ccc4c(c3)OCO4)C2)n2ncnc2n1 (centres unmarked)	-78.4
O=C(CCCN1CCC(C(=O)c2ccc(F)cc2)CC1)c1ccc(F)cc1	-78.5
Cl.c1ccc(-c2nc(NCc3ccco3)c3oc4ccccc4c3n2)cc1	12.9
CCN1C(=O)[C@H]2[C@@H](c3ccc(-c4ccccc4)cc3)N3CCC[C@@]3(C(=O)OC)[C@H]2C1=O.O=C(O)C(F)(F)F	-0.397
COc1ccc(N2CCN(C(c3cccs3)C(C)NC(=O)c3ccco3)CC2)cc1 (centres unmarked)	5.46
c1ccc(Cn2nnc3c(NCc4ccc5c(c4)OCO5)nc(C4CC4)nc32)cc1	5.44
O=C(NC1CCS(=O)(=O)C1)/C(=C\c1ccco1)NC(=O)c1ccccc1 (centres unmarked)	1.36
O=C(CN1C(=O)NC2(CCCCCCC2)C1=O)Nc1ccc(Br)cc1Br	-14.3
O=C(COC(=O)C1CC1)Nc1ccc(Cl)cn1	2.17
Cc1ccc(CNC(=O)CSc2nnc3n2CCCCC3)cc1	-4.49
COc1ccc(NC(=S)N2CCN(Cc3ccccc3)CC2)c(OC)c1	-5.79
CC(Cl)(Cl)/C(=N/P(=S)(N1CCOCC1)N1CCOCC1)N1CCOCC1	13.7
O=C(COC(=O)Cc1ccc(S(=O)(=O)N2CCOCC2)s1)NCc1ccc(Cl)cc1	-27.8
CCc1ccc(C(=O)NC(CCSC)C(=O)O)cc1 (centres unmarked)	15.6
